Here are results for 116 molecules from PubChem BioAssay AID488969 (Vanderbilt High Throughput Screening Facility, 2010).

In all, about 110,000 compounds were measured (“z-score”: median about -0.1, highest 2% from about 2 on). Some of the results follow. The source made the active and inactive calls.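 Rule for the calls: active = z-score in the third read window above 3 or below -3; inactive = the rest.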

In this assay the target is Metabotropic glutamate receptor 8 (Rattus norvegicus) (UniProt P70579). In words: mGluR8 Gi/Go-coupled signaling modulation – cell-based, rat, thallium flux, HTS, primary screen (AID 488969). The settings on record: HEK293 rat mGluR8, GIRK (G protein-gated inwardly rectifying potassium channel) thallium flux, FluoZin2; at 10 µM; stronger effect = higher value; submaximal glutamate (EC20) added with thallium.
Sequence of UniProt P70579 (P70579 whole entry, looked up): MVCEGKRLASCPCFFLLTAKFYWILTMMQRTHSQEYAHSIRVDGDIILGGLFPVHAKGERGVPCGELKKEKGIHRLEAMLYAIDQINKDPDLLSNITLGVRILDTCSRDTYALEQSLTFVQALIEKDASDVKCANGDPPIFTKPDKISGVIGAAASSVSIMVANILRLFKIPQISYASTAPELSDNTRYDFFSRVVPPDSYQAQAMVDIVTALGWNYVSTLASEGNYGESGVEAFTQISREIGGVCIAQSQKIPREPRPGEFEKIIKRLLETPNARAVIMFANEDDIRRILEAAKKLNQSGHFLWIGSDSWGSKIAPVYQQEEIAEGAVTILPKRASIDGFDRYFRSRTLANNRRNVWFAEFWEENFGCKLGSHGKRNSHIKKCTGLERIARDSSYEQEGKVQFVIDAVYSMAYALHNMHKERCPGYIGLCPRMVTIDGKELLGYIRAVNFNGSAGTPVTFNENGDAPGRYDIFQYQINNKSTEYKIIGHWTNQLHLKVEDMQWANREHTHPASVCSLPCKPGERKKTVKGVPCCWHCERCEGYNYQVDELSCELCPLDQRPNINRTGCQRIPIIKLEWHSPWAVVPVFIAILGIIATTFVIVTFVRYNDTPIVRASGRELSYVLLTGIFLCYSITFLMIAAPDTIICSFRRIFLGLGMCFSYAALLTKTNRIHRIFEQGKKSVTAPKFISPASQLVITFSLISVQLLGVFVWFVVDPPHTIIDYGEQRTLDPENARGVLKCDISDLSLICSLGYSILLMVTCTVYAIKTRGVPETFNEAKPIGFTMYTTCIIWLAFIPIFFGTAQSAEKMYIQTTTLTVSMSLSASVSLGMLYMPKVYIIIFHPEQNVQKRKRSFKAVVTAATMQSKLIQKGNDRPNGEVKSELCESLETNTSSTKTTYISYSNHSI
The molecule `CCOc1ccccc1N/C=C(\C#N)c1nc2ccccc2n1C` had a z-score of -0.0997.

`COc1cccc(C2=NOC(C(=O)NCc3cccs3)C2)c1` (stereo unspecified) showed a z-score of -0.0794. In the case of `Cc1cc([N+](=O)[O-])nn1Cc1ccc(C(=O)N/N=C/c2ccccc2)cc1`, the z-score was -0.109. The same measure for `CCCCn1c(NC(=O)C2CCCCC2)nc2ccccc21`: 1.11; for `CCOC(=O)C(NC(C)=O)(Nc1ccc(S(N)(=O)=O)cc1)C(F)(F)F` (stereo unspecified): 0.0525; for `COCCCn1c(SCC(=O)Nc2ccc(NC(=O)c3ccco3)c(OC)c2)nc2ccccc2c1=O`: -0.137. The molecule `COC(=O)C1(C(=O)OC)Sc2ccccc2C1=O` registered a z-score of 0.914. Next, `C/C(=N\NC(=O)c1ccc(N(C)C)cc1)c1ccc(C)c(C)c1`: 0.0219; `O=C(CSc1nnc2scc(-c3ccccc3)n12)NCC1CCCO1` (stereo unspecified): 0.786.

`Nc1ncc2c(n1)CC(c1ccco1)CC2=O` (stereo unspecified): the z-score is -0.0173. The same measure for `CCOc1ccccc1NC(=O)CN1C(=O)COc2ccc(Cl)cc21`: -0.361; for `Cc1cc(NS(=O)(=O)c2ccccc2)no1`: -0.147.

As for `Cc1ccc(SCC(=O)n2nc(C)cc2C)cc1`, the z-score is -0.158. The same measure for `COc1cc(OC)cc(-c2nc3cc(C)ccc3o2)c1`: 1.19.

In the case of `COCCCNC(=S)NNC(=O)c1csc2ccccc12`, the z-score was -0.0918. Next, `CCOCCCNCC(=O)NC1(C)C2CCC(C2)C1(C)C` (stereo unspecified): -0.581. Regarding `CCN(CC)CCN=C1CCCc2ccccc2N1`, the z-score is -0.97.

`CC(C)C1N=C(c2ccc3c(c2)OCO3)CC(c2ccccc2O)N1` (stereo unspecified) gave a z-score of -0.117. Regarding `CCOC(=O)C1=C(C)NC(C)=C(C(=O)OCC)C1/C=C/c1ccccc1`, the z-score is -0.151. Molecule `C/C(Cn1cnc([N+](=O)[O-])n1)=N\NC(=O)c1ccccc1F` came in with a z-score of -0.585.

`CCn1cc(C(=O)N2CCCC2)c(=O)c2cc(S(=O)(=O)N3CCOCC3)ccc21`: the z-score was determined as 0.161. Next, `COC(=O)c1cc(NC(=O)/C=C/c2ccc3c(c2)OCO3)cc(C(=O)OC)c1`: 0.169. The same measure for `O=c1[nH]ncc(N2CCCCC2)c1Cl`: -0.0583; for `CC(C)C(=O)NC(=S)Nc1nnn(C)n1`: 0.169. Next, `S=c1[nH]nc(-c2ccc(Cl)cc2)n1CC1CCCO1` (stereo unspecified): -0.0607; `COc1ccccc1-c1nc(-c2ccc(C)nc2OC)no1`: 0.471. `COc1ccc2[nH]cc(CCCN3C(=O)c4ccccc4C3=O)c2c1` displayed a z-score of -0.421.

In turn, `COCCNS(=O)(=O)c1ccc2c(c1)n(C)c(=O)n2C` showed a z-score of -0.36.

With `O=C(Cc1cccc2ccccc12)Nc1ccc(OC(F)F)c(Cl)c1`, the z-score was -0.229. Next, `O=S(=O)(c1ccc(OCC(O)CN2CCC(Cc3ccccc3)CC2)cc1)N1CCOCC1` (stereo unspecified): 0.46. Regarding `CC(=O)N(CCC(c1ccccc1)c1ccco1)Cc1cccs1` (stereo unspecified), the z-score is -0.43.

As to `CCCOC(=O)Cc1c(O)c2ccccc2[nH]c1=O`, the z-score is 0.0438. Next, `Cn1c(=O)oc2cc(S(=O)(=O)N3CCCC3)ccc21`: 0.418; `O=C(c1cccs1)N1CCC(Cc2ccccc2)CC1`: -0.883. `COc1ccccc1N1CCN(C(=O)Cn2nnc(-c3ccncc3)n2)CC1` came in with a z-score of -0.132.

The molecule `COc1ccc(C(=O)Nc2ccc(S(=O)(=O)NC(C)=O)cc2)cc1` returned a z-score of 0.789.

Take `CCC(Sc1nc2ccccc2c(=O)n1CCN1CCOCC1)C(=O)NCc1cccnc1` (stereo unspecified): the z-score came out at 0.584. The same measure for `O=C(CN1CCN(c2ccccn2)CC1)Nc1ccccc1`: -0.124; for `CCCCNCc1cccn1-c1ccccc1`: 0.442. Turning to `O=C(NNC(=S)NCc1ccco1)c1ccc(Cl)s1`, the z-score is -0.1.

In turn, `Cc1ccccc1CN(c1ccc(C(N)=O)cc1)S(C)(=O)=O` gave a z-score of -0.0764. Next, `O=C(c1ccccc1)c1ccc2nc[nH]c2c1`: -0.0172. The same measure for `CCOC(=O)CCc1c(C)nc(SCCCn2c(=O)[nH]c3ccccc32)c(C#N)c1C`: 0.244; for `COc1ccc(/C(O)=C2/C(=O)C(=O)N(CCN(C)C)C2c2ccc(F)cc2)cc1Cl` (stereo unspecified): -0.506. Next, `O/N=C(\c1ccc(Cl)cc1)c1ncc(C(F)(F)F)cc1Cl`: -0.192; `CCCC12CN(C(=O)c3ccc(OC)cc3)CC(C)(CN(C(=O)c3ccc(OC)cc3)C1)C2=O`: -0.972; `CCOC(=O)c1c(C)oc2c1c(C(c1cccnc1)N1CCCCC1)c(O)c1ccccc12` (stereo unspecified): 0.027. `Cc1nc2cc(CO)ccc2s1` had a z-score of -0.117. The same measure for `CC1=C/C(=C/N(C)c2ccccc2)C(=O)S1`: -0.177; for `O=C(N/N=C/c1cccs1)c1ccc2c(c1)OCO2`: 0.898; for `COc1ccc2[nH]c3c(N4CC(C)OC(C)C4)ncnc3c2c1` (stereo unspecified): -0.534. Molecule `Nc1c(C(=O)CCC(=O)O)oc2ccc(Cl)cc12` came in with a z-score of -0.818. As for `CC(Sc1nnc(N)s1)c1ccccc1Cl` (stereo unspecified), the z-score was -0.255.

In turn, `Cc1ccc(NC(=O)COC(=O)c2ccc3c(c2)NC(=O)C2CCCN32)cc1` (stereo unspecified) had a z-score of -0.114. The same measure for `CCOC(=O)C1=C(C)SC2=NS(=O)(=O)CCN21`: -0.0485. Next, `CCN(c1ccccc1)S(=O)(=O)c1ccc(N)c(OC)c1`: 0.221.

`COc1cccc(NC(=O)CCP(C)(=O)O)c1` yielded a z-score of -0.0855. In turn, `Cc1ccc(S(=O)(=O)Nc2cccc(-c3cn4ccsc4n3)c2)cc1` returned a z-score of -0.494. The same measure for `Cc1ccc2nc(-c3ccc(NC(=O)COC(=O)c4cncc(Br)c4)cc3)sc2c1`: 0.0616.

With `Cc1ccc(CSCCNS(=O)(=O)c2ccc(C)cc2)cc1`, the z-score is -0.638. Next, `O=C(c1ccccc1F)N(Cc1ccccc1)C1CCS(=O)(=O)C1` (stereo unspecified): -0.0428; `CCCCC(=O)Nc1cccc(-c2cn3ccccc3n2)c1`: -0.223. Next, `O=C(Nc1cc(Cl)ccc1N1CCCCC1)c1cccs1`: -0.311; `Cc1nn(-c2ccccc2)c2sc(C(=O)N3CCOCC3)cc12`: -0.72; `CCCCCCCOC1(c2ccccc2)OC(=O)c2ccccc21` (stereo unspecified): -0.11. Next, `COc1ccc(-c2cn3cccnc3n2)cc1Br`: -0.109. Molecule `CCOC(=O)c1c(N)c(C#N)c2n1CCCCC2` came in with a z-score of 0.122. Next, `CC(C)Sc1nc2c(c(=O)n1-c1ccc(F)cc1)SCC2`: -0.98. The same measure for `Cc1ccc(-c2noc(CSc3nnnn3-c3ccccc3)n2)cc1`: -0.581.

Regarding `O=S(=O)(CC(CN1CCCC1)N1CCCC1)c1ccc2ccccc2c1` (stereo unspecified), the z-score is -1.7. `O=C(Nc1cccc(C(F)(F)F)c1)C(SCCO)c1ccccc1` (stereo unspecified) yielded a z-score of -0.0903. The same measure for `CCC(=O)NCCc1nc2cc(NC(=O)c3ccccc3OC)ccc2n1C`: -0.174.

Take `Cc1ccccc1CS(=O)(=O)c1nnc([C@H](Cc2ccccc2)NC(=O)OC(C)(C)C)o1`: the z-score was -1.16. `Cc1ccc(Oc2nnc(-c3cccs3)c3ccccc23)cc1` showed a z-score of -0.167.

With `CC(=O)Nc1ccc(OC(=O)c2cc3cc(Br)ccc3oc2=O)cc1`, the z-score was -0.0759. As for `CC(C)(C)c1cc[n+](/C(C(=S)NC2CC2)=C(/[O-])c2ccc(Cl)s2)cc1`, the z-score is -0.275. As to `COc1ccc(N(CC(=O)N/N=C/c2ccc(-c3ccc([N+](=O)[O-])cc3)o2)S(=O)(=O)c2ccc(C)cc2)cc1Cl`, the z-score is -0.151. The same measure for `Cc1ccc(C2C(/C=C3/SC(=S)NC3=O)=C(c3cccs3)Oc3ccccc32)cc1` (stereo unspecified): 2.55; for `CN1c2ccccc2C(O)=C(C(=S)Nc2ccccc2)S1(=O)=O`: -0.0251. The molecule `COc1cc(OC)c(N2CC34C=CC(O3)C(C(=O)O)C4C2=O)cc1Cl` (stereo unspecified) displayed a z-score of 0.0804.

`Cc1ccnc2ccc(-c3nc4ccccc4o3)cc12`: the z-score was -0.172. Next, `CCN1CCN(S(=O)(=O)c2cc(C)c(OC)cc2C)CC1`: -0.16; `Cc1cccc(C)c1Nc1nnc(SCC(=O)NC(=O)c2cccn2C)s1`: -2.05.

`CCNC(=S)N1CCN(C(=O)c2ccco2)CC1` yielded a z-score of 0.0228. Take `Cc1cccc(N(C(=O)Cc2cccs2)C(C(=O)NC2CCCC2)c2ccsc2)c1` (stereo unspecified): the z-score is -0.147. The same measure for `CSc1ccc(-c2nnn(Cc3ccc(C)cc3)n2)cc1`: -0.327; for `CC(=O)N1CCN(c2ccc(NC(=O)C(C)Oc3ccc(Cl)cc3Cl)cc2)CC1` (stereo unspecified): 0.0136. Next, `COc1ccc(/C=C/C(=O)NC(=S)Nc2ccc(S(=O)(=O)Nc3nccnc3OC)cc2)cc1`: 0.291; `O=C1C=C(OCc2ccccc2)CN1`: 1.32; `O=C(Nc1cc(Cl)ccc1Oc1ccccc1)c1cnccn1`: 0.264. The same measure for `COc1cc(C(=O)Oc2cccc(C)c2)cc(OC)c1OC`: 0.178.

In turn, `Cc1nnn(-c2nonc2N)c1C(=O)N/N=C/c1cccc2ccccc12` yielded a z-score of -0.569. In turn, `CCOc1ccccc1NC(=O)CSCC(=O)Nc1ccccc1` returned a z-score of 0.882. The same measure for `Nc1nc(NC(=O)CCCC(=O)O)nn1-c1ccccc1`: 0.365.

Turning to `O=C(CSc1ccc2ccccc2c1)NC1CCCc2ccccc21` (stereo unspecified), the z-score was -0.0812. Consider `Cc1cc(C)n(CC(=O)NC2CCCCC2)n1`, for which the z-score amounted to 0.0582. Molecule `CCCN(CCC)C1Sc2ccc(C(=O)OC)cc2NC1=O` (stereo unspecified) showed a z-score of -0.0969. The same measure for `Fc1ccccc1-c1nnc2c3ccccc3nc(N3CCOCC3)n12`: -0.0489; for `COc1cc(C2C(C#N)=C(N)Oc3n[nH]c(-c4ccncc4)c32)cc(OC)c1OC` (stereo unspecified): -0.208; for `N#Cc1c(/N=C/c2ccccc2)oc(-c2ccccc2)c1-c1ccccc1`: -0.119.

On to `Cc1ccc(C(=O)NC(=S)Nc2ccccc2C(F)(F)F)cc1C`, for which the z-score is active: 5.48. In turn, `O=C(O)CCN1C(=O)/C(=C/c2ccc(-c3nc4ccccc4s3)o2)SC1=S` showed a z-score of 1.83.

`Cc1ccc2c(c1)N(C(=O)c1ccco1)C(C)(C)c1ssc(=S)c1-2` showed a z-score of -0.788.

`COC(=O)c1nn(-c2ccccc2)c(Cl)c1/C=N/OC(=O)c1ccc(Cl)c(Cl)c1` registered a z-score of -0.925. Next, `CCS(=O)(=O)Nc1ccc(C2=NN(C(=O)c3ccco3)C(c3ccc(C)cc3)C2)cc1` (stereo unspecified): -0.0281. Next, `Clc1ccc2[nH]c3c(c2c1)CCc1cn[nH]c1-3`: 0.0573. In the case of `O=S(=O)(Nc1cccc(CCc2ccccn2)c1)c1ccc2ccccc2c1`, the z-score is -0.324. Next, `CCNC(=O)CN(c1ccc(C)cc1)S(=O)(=O)c1ccccc1`: 0.163; `O=C(c1cc(-c2cccs2)on1)N1CCc2ccccc2C1`: -0.343. The same measure for `O=C1c2ccccc2C(=O)N1/N=C/c1ccc(O)c(O)c1`: -0.492; for `Cc1ccc(NC(=O)CCSc2nnc(C)s2)cc1`: -0.0447; for `O=C(Nc1ncc2c(n1)CC(c1ccco1)CC2=O)c1ccccc1` (stereo unspecified): 0.294. The same measure for `CC(C)C(=O)Nc1cccc(C(=O)Nc2nnc(C(C)C)s2)c1`: -0.551; for `CC(C)(C)c1ccccc1N=Cc1ccc2ccccc2n1`: -0.227; for `N/C(=N\OC(=O)Nc1ccccc1)c1ncc(C(F)(F)F)cc1Cl`: -0.057. For `O=c1c2ccccc2cnn1Cc1n[nH]c(=S)n1-c1ccccc1Cl`, the z-score is -0.398.
